Where “and” joins values, the source holds several entries; their conditions need not be identical. Equal values may be shown once.
How the values were obtained:
[1] = biological target: αBCL2; assay: BLI; biotinylated BCL2 homolog (25 nM) immobilised on streptavidin biosensors, designed protein in solution at defined concentrations; Octet RED96; 10 mM HEPES pH 7.4, 150 mM NaCl, 3 mM EDTA, 0.05% surfactant P20, 0.5% non-fat dry milk; titrations in triplicate, 1:1 binding model; settings: both partners purified
[2] = biological target: M-CDP04 (αMCL1); assay: as above; settings: both partners purified
Chain of M-CDP04 (αMCL1) (Q07817 1-209): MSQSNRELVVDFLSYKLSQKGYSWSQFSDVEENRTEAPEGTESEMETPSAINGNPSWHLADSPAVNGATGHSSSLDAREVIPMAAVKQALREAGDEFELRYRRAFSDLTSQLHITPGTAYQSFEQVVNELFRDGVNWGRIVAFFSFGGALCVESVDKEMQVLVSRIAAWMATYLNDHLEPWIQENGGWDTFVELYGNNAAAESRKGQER

Chain of αBCL2 (Q07817 1-209): as above

Kd [1]: 3.32 µM and 3.48 µM and 3.81 µM and 3.54 µM
kon [1]: 120000 M⁻¹ s⁻¹ and 116000 M⁻¹ s⁻¹ and 105000 M⁻¹ s⁻¹ and 114000 M⁻¹ s⁻¹
Kd [2]: 355 µM and 332 µM and 340 µM and 342 µM
koff [2]: 0.762 s⁻¹ and 0.764 s⁻¹ and 0.594 s⁻¹ and 0.707 s⁻¹
kon [2]: 2150 M⁻¹ s⁻¹ and 2300 M⁻¹ s⁻¹ and 1750 M⁻¹ s⁻¹ and 2070 M⁻¹ s⁻¹
B1: Bcl-xL (natural protein)
chain: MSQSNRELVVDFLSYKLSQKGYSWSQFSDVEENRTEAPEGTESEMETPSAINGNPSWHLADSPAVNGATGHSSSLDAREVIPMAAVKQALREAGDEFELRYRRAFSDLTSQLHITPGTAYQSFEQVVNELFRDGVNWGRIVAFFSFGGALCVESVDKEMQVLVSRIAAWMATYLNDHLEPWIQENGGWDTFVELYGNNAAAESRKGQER
modifications: biotin (enzymatic, BirA)
koff [1]: 0.398 s⁻¹ and 0.404 s⁻¹ and 0.401 s⁻¹ (2×)

From PMC5127641 (eLife, 2016)
